Reference: PMC4336329 (PLoS ONE, 2015)
Among all 310,000 compounds or so, about 14,000 (4.5%) showed an effect of 50% or more. Effects have a minus sign here. Some of the results follow.

What follows are molecules tested against human ether-à-go-go-related gene (hERG) potassium channel (human, UniProt Q12809) (assay: primary screen, population patch clamp on CHO cells stably expressing hERG).
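Further: peak tail current of the secondary pulse compared with the same well before compound.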

Sequence of human ether-à-go-go-related gene (hERG) potassium channel (Q12809 whole entry, looked up): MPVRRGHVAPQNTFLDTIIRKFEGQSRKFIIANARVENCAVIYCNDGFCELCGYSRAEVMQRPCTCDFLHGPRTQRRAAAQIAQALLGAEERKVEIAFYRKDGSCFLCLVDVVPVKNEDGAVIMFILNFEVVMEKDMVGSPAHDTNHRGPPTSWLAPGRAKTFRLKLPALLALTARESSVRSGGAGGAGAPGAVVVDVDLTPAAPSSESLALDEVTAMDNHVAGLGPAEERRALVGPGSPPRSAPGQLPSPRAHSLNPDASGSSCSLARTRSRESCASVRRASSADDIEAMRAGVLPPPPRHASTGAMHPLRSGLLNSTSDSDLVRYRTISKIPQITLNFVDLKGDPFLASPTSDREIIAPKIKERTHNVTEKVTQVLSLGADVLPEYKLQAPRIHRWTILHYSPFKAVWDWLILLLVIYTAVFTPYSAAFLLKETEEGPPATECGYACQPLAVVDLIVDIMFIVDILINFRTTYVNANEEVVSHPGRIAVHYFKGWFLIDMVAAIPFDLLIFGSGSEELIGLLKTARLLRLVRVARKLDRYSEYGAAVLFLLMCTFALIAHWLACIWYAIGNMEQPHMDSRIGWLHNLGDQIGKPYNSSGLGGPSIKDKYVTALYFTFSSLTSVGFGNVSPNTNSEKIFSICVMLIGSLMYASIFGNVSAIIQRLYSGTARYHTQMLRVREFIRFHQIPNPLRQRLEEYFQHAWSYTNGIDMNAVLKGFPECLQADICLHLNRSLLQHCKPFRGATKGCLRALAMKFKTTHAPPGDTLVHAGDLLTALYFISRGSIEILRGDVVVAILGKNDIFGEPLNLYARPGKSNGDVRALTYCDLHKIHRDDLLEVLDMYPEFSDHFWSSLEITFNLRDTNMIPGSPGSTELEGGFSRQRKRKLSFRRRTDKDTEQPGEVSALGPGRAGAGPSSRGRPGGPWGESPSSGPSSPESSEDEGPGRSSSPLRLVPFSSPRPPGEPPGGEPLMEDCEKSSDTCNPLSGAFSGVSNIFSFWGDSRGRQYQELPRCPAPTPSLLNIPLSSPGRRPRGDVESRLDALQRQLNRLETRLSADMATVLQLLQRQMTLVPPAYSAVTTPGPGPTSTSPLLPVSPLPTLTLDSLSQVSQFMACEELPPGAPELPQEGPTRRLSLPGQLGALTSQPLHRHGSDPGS

Compound	hERG current change (%, negative = inhibition) at 10uM [%]
O=S1(=O)CCOCCCN1Cc1ccccc1F	18.1
COc1cccc(CC2(CO)CCCN(Cc3cn[nH]c3C3CCCCC3)C2)c1 (centres unmarked)	-45.1
Cc1cc(OCC(=O)NCC(c2ccc(F)cc2)N2CCOCC2)ccc1Cl (centres unmarked)	-38.6
CCCC(=O)N(CCN1CCOCC1)c1nc2c(F)cc(F)cc2s1.Cl	-26.6
COC(=O)C1CCN(C(=O)CSc2nc3ccc(OC)cc3[nH]2)CC1	28.1
CN=C1c2cc3cc(OC)ccc3n2CCN1C.Cl	-53
O=C(COC(=O)COc1ccc(Br)cc1)Nc1ccc2c(c1)OCCO2	19.3
CC(C)N1CCC(=NNc2ccc([N+](=O)[O-])cc2S(=O)(=O)N2CCOCC2)CC1	-44.7
O=C(N/N=C/c1ccco1)c1cccc(NC(=O)c2ccccc2Cl)c1	-12.5
CSc1ccc(CN(C)C(C)C(=O)Nc2ccc(F)c(F)c2F)cc1 (centres unmarked)	15.3
O=C1CSC(=S)N1c1ccc(F)c(Cl)c1	9.23
CC1CCC(NS(=O)(=O)c2ccc3c(c2)CC(=O)N3)CC1 (centres unmarked)	18.2
CCCCNC(=S)N(C)/N=C/c1ccccc1C(=O)O	-3.88
O=C(Oc1ccccc1)N1CCN(C(=O)c2ccco2)CC1	13.5
O=C(Nc1ccon1)Nc1ccc(Cl)cc1Cl	23.7
O=C(O)CCSc1nc(C(F)(F)F)cc(=O)n1-c1ccccc1	15
O=C(Nc1cccc(Cl)c1N1CCCC1)c1ccc([N+](=O)[O-])o1	9.6
c1cc2c(cc1-n1cnnn1)OCO2	11.8
CCO[C@@H]1OC(C(=O)N2CCOCC2)=C[C@H](C(C)(C)C)[C@H]1CCCO	24.4
O=C(Nc1ccc(C(=O)NN2C(=O)c3ccccc3C2=O)cc1)c1ccccc1	-3.28
CSc1nc2ccc(NC(=O)c3ccc(Cl)s3)cc2s1	15.5
CC(=O)c1ccc(OCCN2CCOCC2)cc1.O=C(O)C(=O)O	1.35

Compound	hERG current change (%, negative = inhibition) at 10uM [%]
CCN1CCN(C(=S)c2ccc(OC)cc2)CC1	-64.8
Cc1[nH+]csc1CCOC(=O)c1ccc([N+](=O)[O-])cc1.[Cl-]	-35.4
N#Cc1c(SCC(=O)N2CCOCC2)nsc1SCC(=O)N1CCOCC1	6.03
CCOC(=O)c1ccc(NC(=S)Nc2cc(C)cc(C)n2)cc1	0.993
CCn1nc(NS(=O)(=O)c2ccc(F)cc2)c2cc3cccc(C)c3nc21	15
CCC(C)N(C(=O)CSc1nnc(COc2ccccc2F)n1N)C1CCS(=O)(=O)C1 (centres unmarked)	4.4
CCOCC(=O)Nc1cc(S(=O)(=O)N2CCOCC2)ccc1N1CCCCC1	22
Cc1ccc[n+](-c2nc3ccccc3nc2[N-]S(=O)(=O)c2ccccc2)c1	20.1
Cc1cc(=O)oc2cc(OCC(=O)OCC(=O)NCc3ccc4c(c3)OCO4)ccc12	5.13
COC(=O)C(Cc1ccccc1)NC(=O)CCNC(=O)c1ccco1 (centres unmarked)	20.4
CCCn1c(SCC(=O)NCCc2ccccc2)nnc1-c1cccnc1	-12.1
COc1ccccc1-c1nnc(NC(=O)c2cccc(N3C(=O)CCC3=O)c2)o1	7.53
Cc1cccc(NC(N)=S)c1	-26.8
Cc1cc(C)nc(N2CCCC(C(=O)Nc3ccc4nc(C)c(C)nc4c3)C2)n1 (centres unmarked)	9.96
O=c1[nH]c(=O)n(Cc2ccccc2Cl)c(O)c1C=Nc1ccc(F)cc1	-3.68
CCOC(=O)c1c(C)nc2c3ccccc3ccn12	-10.1
Brc1ccccc1-c1nnc(CSc2nncn2-c2ccccc2)o1	-18.5
CC1CCCN(C(=O)C2CCN(CC(C)c3ccccc3)CC2)C1.O=C(O)C(=O)O (centres unmarked)	8.12
Cc1ccccc1N1CCN(CC(=O)Nc2ccccc2C(=O)NC2CC2)CC1	-62.4
CCC1(CC)C(=O)Nc2ccccc21	22.3
NC(=O)c1ccsc1NC(=O)COc1ccccc1	-8.47
Cc1ccc(NC(=O)c2ccccc2Br)cc1S(=O)(=O)N(C)C	-1.84
